# Reference: the supplement of paper PMC6746778
# This is one part of the list. Most values come without repeats; read them as rough.
# Legend:
# Assay in all cases: proliferation Z-score within cell line (SRB, relative to all inhibitors screened on that line); triple-negative breast cancer lines and a kinase inhibitor library; SRB is the sulforhodamine B protein stain; higher = less growth inhibition (more resistant)
# Conditions in all cases: concentration: 1 µM; 4 days
# [1] = tested on: Bt20
# [2] = tested on: Bt549
# [3] = tested on: HCC1143
# [4] = tested on: HCC1806
# [5] = tested on: HCC1937
# [6] = tested on: HCC38
# [7] = tested on: HCC70
# [8] = tested on: Hs578T
# [9] = tested on: MDA-MB-231
# [10] = tested on: MDA-MB-435s
# [11] = tested on: MDA-MB-436
# [12] = tested on: MDA-MB-453
# [13] = tested on: MDA-MB-468
# [14] = tested on: SKBR7
# [15] = tested on: SUM1315MO2
# [16] = tested on: SUM149PT
# [17] = tested on: SUM159PT
# [18] = tested on: SUM185PE
# [19] = tested on: SUM229PE
# [20] = tested on: SUM52PE
# 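Note: Single-dose primary screen of a 378-member kinase inhibitor library in 96-well plates, with growth read as absorbance of protein-bound SRB dye after TCA fixation.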
Structure (SMILES),proliferation Z-score within cell line [1],proliferation Z-score within cell line [2],proliferation Z-score within cell line [3],proliferation Z-score within cell line [4],proliferation Z-score within cell line [5],proliferation Z-score within cell line [6],proliferation Z-score within cell line [7],proliferation Z-score within cell line [8],proliferation Z-score within cell line [9],proliferation Z-score within cell line [10],proliferation Z-score within cell line [11],proliferation Z-score within cell line [12],proliferation Z-score within cell line [13],proliferation Z-score within cell line [14],proliferation Z-score within cell line [15],proliferation Z-score within cell line [16],proliferation Z-score within cell line [17],proliferation Z-score within cell line [18],proliferation Z-score within cell line [19],proliferation Z-score within cell line [20]
CCS(=O)(=O)c1cccc(-c2cc(C(=O)NC3CCN(C)CC3)c(C)c3[nH]c4ncc(C)cc4c23)c1,-0.628,-0.513,-0.192,-0.709,0.0955,-1,-1.16,-0.164,-1.25,-0.448,-0.51,-0.248,-1.35,-0.739,-1.38,-0.971,0.7,-1.38,-0.691,-1.24
Cc1ccc(Nc2nccc(N(C)c3ccc4c(C)n(C)nc4c3)n2)cc1S(N)(=O)=O [Pazopanib],0.042,0.552,0.281,0.578,0.492,0.405,0.181,0.678,0.0886,0.303,0.192,0.616,0.435,0.328,-0.983,0.112,0.457,-0.867,0.674,-1.8
COc1ccc2cc(-c3nc(-c4ccc([S+](C)[O-])cc4)[nH]c3-c3ccncc3)ccc2c1 (stereo not given) [Tie2 kinase inhibitor],1.23,0.528,-1.01,0.593,-0.402,0.6,-0.717,0.721,0.768,0.833,-0.656,0.847,0.991,0.511,0.984,0.718,0.586,1.33,0.883,1.47
C=CC(=O)Nc1ccc2ncnc(Nc3ccc(OCc4cccc(F)c4)c(Cl)c3)c2c1,-0.23,0.185,-0.509,-1.73,-0.167,0.411,-1.06,0.305,0.194,0.478,-1.19,-1.49,-0.934,0.469,0.0497,-0.633,-1.69,-0.0379,-0.417,0.267
COc1cc2nccc(Oc3ccc(NC(=O)C4(C(=O)Nc5ccc(F)cc5)CC4)cc3)c2cc1OC,-0.0321,0.632,0.00637,0.886,0.396,0.486,0.835,0.352,0.623,0.424,0.347,0.725,0.171,0.79,-0.41,0.698,-0.297,-0.407,-0.148,-1.29
Cc1ccc(S(=O)(=O)C=CC#N)cc1,0.54,0.664,0.493,0.845,0.533,0.541,0.451,0.561,0.592,0.683,0.442,0.885,0.823,0.775,0.834,0.574,0.389,0.435,0.565,0.745
COc1ccccc1-c1cc(Nc2cccc(CS(N)(=O)=O)c2)ncn1,-0.131,-0.858,0.211,-1.41,-0.496,-1.8,-0.142,-1.17,0.784,0.487,-0.457,-1.56,0.248,-1.34,0.0782,0.814,0.353,0.133,0.542,0.773
CCc1cnn2c(NCc3ccc[n+]([O-])c3)cc(N3CCCC[C@H]3CCO)nc12,-2.01,-1.98,-2.27,-1.91,-2.36,-2.38,-1.96,-2.05,-1.58,-1.71,-1.97,-1.46,-1.6,-1.92,-1.6,-1.93,-2.28,-1.07,-1.86,-1.16
COc1ccc(C(=O)Nc2sc3c(c2C(N)=O)CCCC3)cc1OC,0.375,-0.125,0.304,-0.0806,0.264,0.251,0.194,0.00845,1,0.463,0.55,-1.09,0.785,-0.745,0.801,0.418,0.161,0.156,0.33,0.854
COc1cc(Nc2nc3ccccc3nc2NS(=O)(=O)c2ccc(NC(=O)c3ccc(C)c(OC)c3)cc2)cc(OC)c1,0.165,0.536,0.523,0.429,0.76,0.48,0.509,0.773,0.696,0.687,0.169,0.491,0.822,0.39,0.411,0.47,0.522,0.39,0.132,-0.0769
O=C(NCCCNc1nc(Nc2cccc(NC(=O)N3CCCC3)c2)ncc1I)c1cccs1,0.0178,0.165,-0.396,0.726,-0.0694,0.38,0.708,-0.0234,-1.08,-0.585,0.571,0.0699,-1.26,-0.541,-0.874,0.181,0.567,0.0316,0.0967,-0.359
COc1cc2ncnc(Nc3ccc(Cl)cc3F)c2cc1OC,-0.323,0.409,-0.6,-1.74,-0.291,-0.0102,0.279,0.224,0.326,0.37,-0.0234,0.495,-0.751,-0.18,-0.24,-0.843,0.192,0.0345,-0.541,-0.28
Cc1ccc2nc(NCCN)c3ncc(C)n3c2c1,0.55,0.126,0.426,0.624,0.588,0.32,0.453,0.43,0.721,0.673,0.243,0.561,0.726,0.601,0.848,0.734,0.212,1.06,0.947,0.867
CC(C)c1cnn2c(NCc3ccccc3)cc(NCCCCCCN)nc12,0.347,0.526,1.22,0.519,0.962,0.421,0.678,0.659,0.958,0.583,0.479,0.595,0.916,0.375,0.625,0.142,0.353,0.338,0.457,0.0474
Fc1cc(-c2cccc3ncc(-c4cnn(C5CCNCC5)c4)nc23)cc(F)c1CN1CCOCC1,0.885,0.871,0.766,0.862,0.715,0.655,0.665,0.761,0.957,0.713,0.405,0.96,0.805,0.185,0.872,0.914,0.523,0.396,0.605,0.772
COc1cc2ncnc(Nc3cccc(Cl)c3)c2cc1OC [AG-1478 (Tyrphostin AG-1478)],0.319,0.696,0.459,-0.198,-0.0972,0.637,0.779,0.724,0.812,1.17,0.621,0.914,0.479,0.841,0.874,0.174,0.715,0.887,0.369,1.08
C[C@H](Nc1ncnc2nc[nH]c12)c1cc2cccc(Cl)c2c(=O)n1-c1ccccc1,0.456,-0.572,0.0274,-0.833,-0.975,0.233,-1.36,-0.549,0.504,0.24,-1.45,0.105,-0.83,0.889,0.162,0.465,0.333,-0.086,0.0318,-0.498
Cc1cc(CS(=O)(=O)c2ccccc2)cc(OCc2ccc(CN3CCC[C@@H]3CO)cc2)c1,0.357,0.585,0.791,0.694,0.3,0.445,0.495,0.422,0.607,0.707,0.348,0.621,0.721,0.252,0.678,0.706,0.469,0.191,0.449,0.551
O=C1NC(=O)C(=Cc2ccc(-c3ccc(F)cc3)o2)S1 (stereo in doubt),0.641,0.809,0.776,0.898,0.766,0.675,0.895,0.776,0.869,0.995,0.698,1.08,1.1,0.781,1.44,1.05,0.692,1.14,0.811,1.4
Cc1cc([C@@H](C)Nc2ccccc2C(=O)O)c2nc(N3CCOCC3)cc(=O)n2c1,-1.29,-0.775,-0.317,-0.774,-1.03,0.021,-0.35,-0.658,0.32,0.0946,0.501,-1.53,-0.58,0.167,-0.223,0.218,0.395,-1.52,-0.185,-0.815
C[C@H](NC(=O)/C(C#N)=C/c1cccc(Br)n1)c1ccccc1,0.922,0.65,0.765,0.687,0.691,0.613,0.609,0.777,1,0.907,0.437,0.821,1.09,0.376,1.1,0.912,0.605,1.01,0.738,1.28
Nc1ncnc2c1c(-c1cccc(OCc3ccccc3)c1)cn2C1CC(CN2CCC2)C1 (stereo not given),0.936,0.196,-1.99,0.279,-1.42,0.51,-1.26,0.687,0.394,0.216,-2.47,0.73,1.15,-0.558,0.603,-0.322,-2.94,1.03,-0.666,1.27
Nc1cccc(-c2cc3c(Oc4cccc(O)c4)ncnc3[nH]2)c1,0.802,0.749,0.98,-0.0975,0.685,0.247,0.817,0.849,0.625,0.574,0.485,0.964,0.815,0.167,0.878,-0.319,0.749,1.25,0.548,-0.659
CCOc1cc(N2CCC(O)CC2)ccc1Nc1ncc2c(n1)N(C)c1ccccc1C(=O)N2C,0.816,0.594,0.485,0.636,0.637,0.232,0.52,0.503,0.632,0.714,0.8,0.646,0.806,0.615,0.95,0.764,0.446,0.921,0.61,0.813
Oc1cccc(-c2nc(N3CCOCC3)c3oc4ncccc4c3n2)c1,0.79,-0.121,-1.15,0.823,-1.5,0.569,0.316,0.6,-1.24,-1.83,-1.12,0.582,0.517,0.96,-2.1,0.485,0.55,-1.84,-1.8,-1.04
COc1ccc2c(c1)c(C1=C(c3c[nH]c4ccccc34)C(=O)NC1=O)cn2CCCN(C)C,0.319,0.628,0.251,0.442,0.469,0.513,0.394,0.592,0.663,0.538,0.885,0.99,0.764,0.376,0.411,0.8,0.304,-0.15,-0.0454,0.21
